# Experimental data as given in the supplement of paper PMC8728848.
# This is one part of the list.
# Legend:
# Assay in all cases: glycan array binding signal (z-score within array); higher = stronger binding
# Details in all cases: glycan notation: IUPAC condensed, linker removed
# Gal(b1-2)Gal = biological target: Gal(b1-2)Gal
# Procedure, shortened: (§1)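 The binding signal is a Z-score computed within each array and averaged over linkers. Arrays of the same protein sequence at different concentrations or buffers were also averaged together. Data originate from 3228 arrays in the Consortium for Functional Glycomics database, kept only where the protein sequence was available.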
# Gal(b1-3)Gal = biological target: Gal(b1-3)Gal
# Procedure, shortened: as §1
# Gal(b1-3)Gal(b1-4)GlcNAc = biological target: Gal(b1-3)Gal(b1-4)GlcNAc
# Procedure, shortened: as §1
# Gal(b1-3)GalNAc = biological target: Gal(b1-3)GalNAc
# Procedure, shortened: as §1
# [1] = biological target: Gal(b1-3)GalNAc(b1-3)Gal(a1-4)Gal(b1-4)Glc
# Procedure, shortened: as §1
# [2] = biological target: Gal(b1-3)GalNAc(b1-4)Gal(b1-4)Glc
# Procedure, shortened: as §1
# [3] = biological target: Gal(b1-3)GalNAc(b1-4)[Neu5Ac(a2-3)]Gal(b1-4)Glc
# Procedure, shortened: as §1
# Gal(b1-3)GlcNAc = biological target: Gal(b1-3)GlcNAc
# Procedure, shortened: as §1
# [4] = biological target: Gal(b1-3)GlcNAc(b1-2)Man(a1-3)[Gal(b1-3)GlcNAc(b1-2)Man(a1-6)]Man(b1-4)GlcNAc(b1-4)GlcNAc
# Procedure, shortened: as §1
# [5] = biological target: Gal(b1-3)GlcNAc(b1-3)Gal(b1-3)GlcNAc
# Procedure, shortened: as §1
# [6] = biological target: Gal(b1-3)GlcNAc(b1-3)Gal(b1-4)Glc
# Procedure, shortened: as §1
# [7] = biological target: Gal(b1-3)GlcNAc(b1-3)Gal(b1-4)GlcNAc
# Procedure, shortened: as §1
# [8] = biological target: Gal(b1-3)[Fuc(a1-4)]GlcNAc
# Procedure, shortened: as §1
# [9] = biological target: Gal(b1-3)[Fuc(a1-4)]GlcNAc(b1-3)Gal(b1-3)[Fuc(a1-4)]GlcNAc
# Procedure, shortened: as §1
# [10] = biological target: Gal(b1-3)[Fuc(a1-4)]GlcNAc(b1-3)Gal(b1-4)GlcNAc
# Procedure, shortened: as §1
# [11] = biological target: Gal(b1-3)[Fuc(a1-4)]GlcNAc(b1-3)Gal(b1-4)[Fuc(a1-3)]GlcNAc
# Procedure, shortened: as §1
# [12] = biological target: Gal(b1-3)[GlcNAc(b1-6)]GalNAc
# Procedure, shortened: as §1
# [13] = biological target: Gal(b1-3)[Neu5Ac(a2-6)]GalNAc
# Procedure, shortened: as §1
# [14] = biological target: Gal(b1-3)[Neu5Ac(a2-6)]GlcNAc(b1-6)Gal(b1-4)Glc
# Procedure, shortened: as §1
# [15] = biological target: Gal(b1-3)[Neu5Ac(b2-6)]GalNAc
# Procedure, shortened: as §1
# [16] = biological target: Gal(b1-4)GalNAc(a1-3)[Fuc(a1-2)]Gal(b1-4)GlcNAc
# Procedure, shortened: as §1
# [17] = biological target: Gal(b1-4)GalNAc(b1-3)[Fuc(a1-2)]Gal(b1-4)GlcNAc
# Procedure, shortened: as §1
# Gal(b1-4)Glc = biological target: Gal(b1-4)Glc
# Procedure, shortened: as §1
# Gal(b1-4)Glc6S = biological target: Gal(b1-4)Glc6S
# Procedure, shortened: as §1
# Gal(b1-4)GlcNAc = biological target: Gal(b1-4)GlcNAc
# Procedure, shortened: as §1
# [18] = biological target: Gal(b1-4)GlcNAc(a1-6)Gal(b1-4)GlcNAc
# Procedure, shortened: as §1
# [19] = biological target: Gal(b1-4)GlcNAc(b1-2)Man(a1-3)[Gal(b1-4)GlcNAc(b1-2)Man(a1-6)]Man(b1-4)GlcNAc(b1-4)GlcNAc
# Procedure, shortened: as §1
# [20] = biological target: Gal(b1-4)GlcNAc(b1-3)Gal(b1-3)GlcNAc
# Procedure, shortened: as §1
# [21] = biological target: Gal(b1-4)GlcNAc(b1-3)Gal(b1-4)Glc
# Procedure, shortened: as §1
# [22] = biological target: Gal(b1-4)GlcNAc(b1-3)Gal(b1-4)GlcNAc
# Procedure, shortened: as §1
# [23] = biological target: Gal(b1-4)GlcNAc(b1-3)Gal(b1-4)GlcNAc(b1-3)Gal(b1-4)GlcNAc
# Procedure, shortened: as §1
# [24] = biological target: Gal(b1-4)GlcNAc(b1-3)Gal(b1-4)[Fuc(a1-3)]GlcNAc(b1-3)Gal(b1-4)[Fuc(a1-3)]GlcNAc
# Procedure, shortened: as §1
# [25] = biological target: Gal(b1-4)GlcNAc(b1-3)GalNAc
# Procedure, shortened: as §1
# [26] = biological target: Gal(b1-4)GlcNAc(b1-3)[Gal(b1-4)GlcNAc(b1-6)]Gal(b1-4)GlcNAc
# Procedure, shortened: as §1
# [27] = biological target: Gal(b1-4)GlcNAc(b1-3)[GlcNAc(b1-6)]Gal(b1-4)GlcNAc
# Procedure, shortened: as §1
# [28] = biological target: Gal(b1-4)GlcNAc(b1-6)Gal(b1-4)GlcNAc
# Procedure, shortened: as §1
# [29] = biological target: Gal(b1-4)GlcNAc(b1-6)Gal(b1-4)GlcNAc(b1-6)GalNAc
# Procedure, shortened: as §1
# [30] = biological target: Gal(b1-4)GlcNAc(b1-6)GalNAc
# Procedure, shortened: as §1
# [31] = biological target: Gal(b1-4)GlcNAc(b1-6)[Gal(b1-3)]GalNAc
# Procedure, shortened: as §1
# Gal3S(b1-3)GalNAc = biological target: Gal3S(b1-3)GalNAc
# Procedure, shortened: as §1
# Gal3S(b1-3)GlcNAc = biological target: Gal3S(b1-3)GlcNAc
# Procedure, shortened: as §1
# [32] = biological target: Gal3S(b1-3)[Fuc(a1-4)]GlcNAc
# Procedure, shortened: as §1
# Gal3S(b1-4)Glc = biological target: Gal3S(b1-4)Glc
# Procedure, shortened: as §1
# Gal3S(b1-4)Glc6S = biological target: Gal3S(b1-4)Glc6S
# Procedure, shortened: as §1
# Gal3S(b1-4)GlcNAc = biological target: Gal3S(b1-4)GlcNAc
# Procedure, shortened: as §1
# Gal3S(b1-4)GlcNAc6S = biological target: Gal3S(b1-4)GlcNAc6S
# Procedure, shortened: as §1
# [33] = biological target: Gal3S(b1-4)[Fuc(a1-3)]Glc
# Procedure, shortened: as §1
# Gal3S4S(b1-4)GlcNAc = biological target: Gal3S4S(b1-4)GlcNAc
# Procedure, shortened: as §1
# Gal3S6S(b1-4)GlcNAc = biological target: Gal3S6S(b1-4)GlcNAc
# Procedure, shortened: as §1
# Gal3S6S(b1-4)GlcNAc6S = biological target: Gal3S6S(b1-4)GlcNAc6S
# Procedure, shortened: as §1
# Gal4S(b1-4)GlcNAc = biological target: Gal4S(b1-4)GlcNAc
# Procedure, shortened: as §1
# Gal4S6S(b1-4)GlcNAc = biological target: Gal4S6S(b1-4)GlcNAc
# Procedure, shortened: as §1
# Gal6S(b1-4)Glc = biological target: Gal6S(b1-4)Glc
# Procedure, shortened: as §1
# Gal6S(b1-4)Glc6S = biological target: Gal6S(b1-4)Glc6S
# Procedure, shortened: as §1
# Gal6S(b1-4)GlcNAc = biological target: Gal6S(b1-4)GlcNAc
# Procedure, shortened: as §1
# Gal6S(b1-4)GlcNAc6S = biological target: Gal6S(b1-4)GlcNAc6S
# Procedure, shortened: as §1
# GalNAc(a1-3)Gal = biological target: GalNAc(a1-3)Gal
# Procedure, shortened: as §1
# GalNAc(a1-3)GalNAc = biological target: GalNAc(a1-3)GalNAc
# Procedure, shortened: as §1
# GalNAc(b1-3)Gal = biological target: GalNAc(b1-3)Gal
# Procedure, shortened: as §1
# [34] = biological target: GalNAc(b1-3)Gal(a1-4)Gal(b1-4)GlcNAc
# Procedure, shortened: as §1
binder,measurement,setting,value
"MIC1 (Toxoplasma gondii), O00834 (protein) MGQALFLTVLLPVLFGVGPEAYGEASHSHSPASGRYIQQMLDQRCQEIAAELCQSGLRKMCVPSSRIVARNAVGITHQNTLQWRCFDTASLLESNQENNGVNCVDDCGHTIPCPGGVHRQNSNHATRHEILSKLVEEGVQRFCSPYQASANKYCNDKFPGTIARRSKGFGNNVEVAWRCYEKASLLYSVYAECASNCGTTWYCPGGRRGTSTELDKRHYTEEEGIRQAIGSVDSPCSEVEVCLPKDENPPLCLDESGQISRTGGGPPSQPPEMQQPADRSDERGGGKEQSPGGEAQPDHPTKGGNIDLPEKSTSPEKTPKTEIHGDSTKATLEEGQQLTLTFISTKLDVAVGSCHSLVANFLDGFLKFQTGSNSAFDVVEVEEPAGPAVLTIGLGHKGRLAVVLDYTRLNAALGSAAYVVEDSGCSSSEEVSFQGVGSGATLVVTTLGESPTAVSA",glycan array binding signal (z-score),Gal(b1-2)Gal,-0.324
same,glycan array binding signal (z-score),Gal(b1-3)Gal,-0.271
same,glycan array binding signal (z-score),Gal(b1-3)Gal(b1-4)GlcNAc,-0.271
same,glycan array binding signal (z-score),Gal(b1-3)GalNAc,0.028
same,glycan array binding signal (z-score),[1],-0.25
same,glycan array binding signal (z-score),[2],0.043
same,glycan array binding signal (z-score),[3],-0.14
same,glycan array binding signal (z-score),Gal(b1-3)GlcNAc,0.051
same,glycan array binding signal (z-score),[4],0.008
same,glycan array binding signal (z-score),[5],-0.247
same,glycan array binding signal (z-score),[6],-0.292
same,glycan array binding signal (z-score),[7],-0.317
same,glycan array binding signal (z-score),[8],-0.154
same,glycan array binding signal (z-score),[9],-0.194
same,glycan array binding signal (z-score),[10],-0.219
same,glycan array binding signal (z-score),[11],0
same,glycan array binding signal (z-score),[12],-0.288
same,glycan array binding signal (z-score),[13],-0.024
same,glycan array binding signal (z-score),[14],-0.095
same,glycan array binding signal (z-score),[15],-0.255
same,glycan array binding signal (z-score),[16],-0.051
same,glycan array binding signal (z-score),[17],-0.009
same,glycan array binding signal (z-score),Gal(b1-4)Glc,-0.087
same,glycan array binding signal (z-score),Gal(b1-4)Glc6S,-0.074
same,glycan array binding signal (z-score),Gal(b1-4)GlcNAc,-0.165
same,glycan array binding signal (z-score),[18],-0.135
same,glycan array binding signal (z-score),[19],-0.202
same,glycan array binding signal (z-score),[20],-0.363
same,glycan array binding signal (z-score),[21],-0.223
same,glycan array binding signal (z-score),[22],-0.327
same,glycan array binding signal (z-score),[23],-0.267
same,glycan array binding signal (z-score),[24],-0.362
same,glycan array binding signal (z-score),[25],-0.252
same,glycan array binding signal (z-score),[26],-0.247
same,glycan array binding signal (z-score),[27],-0.089
same,glycan array binding signal (z-score),[28],0.196
same,glycan array binding signal (z-score),[29],-0.292
same,glycan array binding signal (z-score),[30],-0.3
same,glycan array binding signal (z-score),[31],-0.196
same,glycan array binding signal (z-score),Gal3S(b1-3)GalNAc,-0.208
same,glycan array binding signal (z-score),Gal3S(b1-3)GlcNAc,-0.308
same,glycan array binding signal (z-score),[32],-0.255
same,glycan array binding signal (z-score),Gal3S(b1-4)Glc,-0.149
same,glycan array binding signal (z-score),Gal3S(b1-4)Glc6S,-0.223
same,glycan array binding signal (z-score),Gal3S(b1-4)GlcNAc,-0.227
same,glycan array binding signal (z-score),Gal3S(b1-4)GlcNAc6S,-0.108
same,glycan array binding signal (z-score),[33],-0.201
same,glycan array binding signal (z-score),Gal3S4S(b1-4)GlcNAc,-0.146
same,glycan array binding signal (z-score),Gal3S6S(b1-4)GlcNAc,-0.228
same,glycan array binding signal (z-score),Gal3S6S(b1-4)GlcNAc6S,-0.287
same,glycan array binding signal (z-score),Gal4S(b1-4)GlcNAc,-0.229
same,glycan array binding signal (z-score),Gal4S6S(b1-4)GlcNAc,-0.218
same,glycan array binding signal (z-score),Gal6S(b1-4)Glc,-0.147
same,glycan array binding signal (z-score),Gal6S(b1-4)Glc6S,-0.132
same,glycan array binding signal (z-score),Gal6S(b1-4)GlcNAc,-0.264
same,glycan array binding signal (z-score),Gal6S(b1-4)GlcNAc6S,-0.291
same,glycan array binding signal (z-score),GalNAc(a1-3)Gal,-0.009
same,glycan array binding signal (z-score),GalNAc(a1-3)GalNAc,-0.071
same,glycan array binding signal (z-score),GalNAc(b1-3)Gal,-0.315
same,glycan array binding signal (z-score),[34],-0.301
